Results taken from the supplement of paper PMC4967469.
By IC50 is meant the dose at which the fit gives 50% viability; where the fit passes the top or lowest dose, that dose stands as a limit. AUC is the area under the same curve over the 256-fold range up to the top dose, as a fraction; the more sensitive the line, the further below 1. For part of these data: Any top dose called inferred was derived from the fitted curves, not read from the paper.

Columns and labels:
Assay in all cases: Viability of human cancer cell lines after 72 h of drug (GDSC screen)
[1] = compound: CCC1=C[C@@H]2CN(C1)Cc1c([nH]c3ccccc13)[C@@](C(=O)OC)(c1cc3c(cc1OC)N(C)[C@H]1[C@@](O)(C(=O)OC)[C@H](OC(C)=O)[C@]4(CC)C=CCN5CC[C@]31[C@@H]54)C2 [Vinorelbine]; conditions: top dose 0.064 µM; top dose inferred
Method: (§1)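 Human cancer cell lines in 384-well plates, medium with 10% serum, drug for 72 h over a 256-fold dose range (nine 2-fold or five 4-fold steps up to the top dose). Adherent lines were fixed and stained with the nucleic acid dye Syto60, suspension lines read with resazurin; signal relative to control wells, capped at 0 and 100%. One two-parameter sigmoid per drug and line, fitted in a mixed model over all curves with the slope shared within a line.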

[2] = compound: COc1cc2ncnc(Nc3ccc(F)c(Cl)c3)c2cc1OCCCN1CCOCC1 [Gefitinib]; conditions: top dose 0.5 µM
Method: as §1

[3] = compound: N[C@@H](CSC(c1ccccc1)(c1ccccc1)c1ccccc1)C(=O)O [S-Trityl-L-cysteine]; conditions: top dose 5.12 µM; top dose inferred
Method: as §1

[4] = compound: O=c1cc(N2CCOCC2)oc2c(-c3cccc4c3sc3ccccc34)cccc12 [NU-7441]; conditions: top dose 2 µM; top dose inferred
Method: as §1

[5] = compound: CNCc1ccc(-c2[nH]c3cc(F)cc4c3c2CCNC4=O)cc1 [AG-014699]; conditions: top dose 5 µM; top dose inferred
Method: as §1

[6] = compound: C=CC(=O)Nc1cc(NC(=O)c2ccc(C)c(NC(=O)c3ccno3)c2)cc(C(F)(F)F)c1 [QL-XI-92]; conditions: top dose 10.24 µM; top dose inferred
Method: as §1

[7] = compound: COc1cc2nccc(Oc3ccc(NC(=O)C4(C(=O)Nc5ccc(F)cc5)CC4)cc3)c2cc1OC [XL-184]; conditions: top dose 5.12 µM; top dose inferred
Method: as §1

[8] = compound: N=C(N)NC(=N)NCCc1ccccc1 [Phenformin]; conditions: top dose 4000 µM; top dose inferred
Method: as §1

[9] = compound: O=c1cc(CN2CCOCC2)occ1OCCCCCSc1ccnc2cc(C(F)(F)F)ccc12 [EHT 1864]; conditions: top dose 10 µM; top dose inferred
Method: as §1

[10] = compound: COc1cc2ncnc(Nc3cc(Br)c(O)c(Br)c3)c2cc1OC [WHI-P97]; conditions: top dose 10.24 µM; top dose inferred
Method: as §1

Cell Line | AUC [1] | IC50 [1] | AUC [2] | IC50 [2] | AUC [3] | IC50 [3] | AUC [4] | IC50 [4] | AUC [5] | IC50 [5] | AUC [6] | IC50 [6] | AUC [7] | IC50 [7] | AUC [8] | IC50 [8] | AUC [9] | IC50 [9] | AUC [10] | IC50 [10]
A4-Fuk (B-cell lymphoma, suspension) | 0.452 | 0.00294 µM | 0.984 | > 0.5 µM | 0.549 | 0.437 µM | 0.984 | > 2 µM | 0.986 | > 5 µM | 0.971 | > 10.2 µM | 0.868 | 5 µM | 0.835 | 2800 µM | 0.976 | > 10 µM | 0.986 | > 10.2 µM
A253 (head and neck, adherent) | 0.371 | 0.00178 µM | 0.976 | > 0.5 µM | 0.858 | 4.01 µM | 0.977 | > 2 µM | 0.989 | > 5 µM | 0.962 | > 10.2 µM | 0.989 | > 5.12 µM | 0.857 | 3110 µM | 0.973 | > 10 µM | 0.988 | > 10.2 µM
ALL-PO (lymphoblastic leukaemia, suspension) | 0.441 | 0.00272 µM | 0.912 | > 0.5 µM | 0.68 | 1.05 µM | 0.859 | 1.81 µM | 0.875 | > 5 µM | 0.857 | 9.12 µM | 0.31 | 0.0908 µM | 0.188 | 27.2 µM | 0.711 | 2.56 µM | 0.797 | 5.14 µM
AM-38 (glioma, semi-adherent) | 0.811 | 0.0349 µM | 0.962 | > 0.5 µM | 0.988 | > 5.12 µM | 0.958 | > 2 µM | 0.966 | > 5 µM | 0.885 | > 10.2 µM | 0.872 | 5.07 µM | 0.97 | > 4000 µM | 0.892 | > 10 µM | 0.944 | > 10.2 µM
ARH-77 (myeloma, suspension) | 0.742 | 0.0191 µM | 0.968 | > 0.5 µM | 0.791 | 2.2 µM | 0.979 | > 2 µM | 0.983 | > 5 µM | 0.88 | 10 µM | 0.948 | > 5.12 µM | 0.777 | 1550 µM | 0.943 | > 10 µM | 0.984 | > 10.2 µM
ATN-1 (T-cell lymphoblastic leukaemia, suspension) | 0.414 | 0.00237 µM | 0.982 | > 0.5 µM | 0.621 | 0.674 µM | 0.867 | 1.61 µM | 0.972 | > 5 µM | 0.96 | > 10.2 µM | 0.903 | > 5.12 µM | 0.487 | 230 µM | 0.988 | > 10 µM | 0.978 | > 10.2 µM
BB49-HNC (head and neck, adherent) | 0.766 | 0.0335 µM | 0.971 | > 0.5 µM | 0.967 | > 5.12 µM | 0.938 | > 2 µM | 0.952 | > 5 µM | 0.975 | > 10.2 µM | 0.978 | > 5.12 µM | 0.913 | > 4000 µM | 0.969 | > 10 µM | 0.948 | > 10.2 µM
BE-13 (lymphoblastic leukaemia, suspension) | 0.586 | 0.00677 µM | 0.889 | > 0.5 µM | 0.726 | 1.33 µM | 0.921 | > 2 µM | 0.974 | > 5 µM | 0.871 | 8.58 µM | 0.727 | 1.34 µM | 0.543 | 325 µM | 0.923 | > 10 µM | 0.9 | > 10.2 µM
Becker (glioma, adherent) | 0.538 | 0.00515 µM | 0.977 | > 0.5 µM | 0.598 | – | 0.93 | > 2 µM | 0.935 | > 5 µM | 0.962 | > 10.2 µM | 0.869 | > 5.12 µM | 0.763 | 1610 µM | 0.95 | > 10 µM | 0.956 | > 10.2 µM
C2BBe1 (large intestine, adherent) | 0.879 | > 0.064 µM | 0.945 | > 0.5 µM | 0.964 | > 5.12 µM | 0.982 | > 2 µM | 0.986 | > 5 µM | 0.969 | > 10.2 µM | 0.97 | > 5.12 µM | 0.727 | 1220 µM | 0.899 | > 10 µM | 0.931 | > 10.2 µM
CA46 (Burkitt lymphoma, suspension) | 0.729 | 0.019 µM | 0.975 | > 0.5 µM | 0.894 | > 5.12 µM | 0.982 | > 2 µM | 0.979 | > 5 µM | 0.846 | 8.32 µM | 0.887 | > 5.12 µM | 0.503 | 254 µM | 0.964 | > 10 µM | 0.955 | > 10.2 µM
CGTH-W-1 (thyroid, adherent) | 0.323 | 0.00129 µM | 0.987 | > 0.5 µM | 0.913 | > 5.12 µM | 0.953 | > 2 µM | 0.938 | > 5 µM | 0.897 | > 10.2 µM | 0.931 | > 5.12 µM | 0.959 | > 4000 µM | 0.962 | > 10 µM | 0.977 | > 10.2 µM
CHP-126 (neuroblastoma, suspension) | 0.863 | 0.0575 µM | 0.987 | > 0.5 µM | 0.929 | > 5.12 µM | 0.976 | > 2 µM | 0.947 | > 5 µM | 0.925 | > 10.2 µM | 0.976 | > 5.12 µM | 0.975 | > 4000 µM | 0.987 | > 10 µM | 0.954 | > 10.2 µM
COLO-320-HSR (large intestine, suspension) | 0.98 | > 0.064 µM | 0.991 | > 0.5 µM | 0.691 | 1.01 µM | 0.986 | > 2 µM | 0.992 | > 5 µM | 0.985 | > 10.2 µM | 0.93 | > 5.12 µM | 0.677 | 722 µM | 0.978 | > 10 µM | 0.978 | > 10.2 µM
COLO-684 (endometrium, suspension) | 0.684 | 0.0141 µM | 0.985 | > 0.5 µM | 0.798 | 2.8 µM | 0.969 | > 2 µM | 0.966 | > 5 µM | 0.892 | > 10.2 µM | 0.949 | > 5.12 µM | 0.576 | 413 µM | 0.955 | > 10 µM | 0.974 | > 10.2 µM
COLO-800 (melanoma, adherent) | 0.612 | 0.00804 µM | 0.982 | > 0.5 µM | 0.96 | > 5.12 µM | 0.986 | > 2 µM | 0.627 | 0.69 µM | 0.982 | > 10.2 µM | 0.958 | > 5.12 µM | 0.762 | 1390 µM | 0.904 | > 10 µM | 0.983 | > 10.2 µM
COR-L95 (small cell lung carcinoma, adherent) | 0.959 | > 0.064 µM | 0.987 | > 0.5 µM | 0.942 | > 5.12 µM | 0.983 | > 2 µM | 0.987 | > 5 µM | 0.958 | > 10.2 µM | 0.97 | > 5.12 µM | 0.384 | 114 µM | 0.943 | > 10 µM | 0.982 | > 10.2 µM
COR-L279 (small cell lung carcinoma, suspension) | 0.746 | 0.0184 µM | 0.985 | > 0.5 µM | 0.824 | 2.62 µM | 0.991 | > 2 µM | 0.99 | > 5 µM | 0.985 | > 10.2 µM | 0.885 | 4.56 µM | 0.743 | 1130 µM | 0.952 | > 10 µM | 0.94 | > 10.2 µM
CP66-MEL (melanoma, adherent) | 0.834 | 0.05 µM | 0.986 | > 0.5 µM | 0.765 | 2.13 µM | 0.978 | > 2 µM | 0.985 | > 5 µM | 0.976 | > 10.2 µM | 0.982 | > 5.12 µM | 0.492 | 238 µM | 0.986 | > 10 µM | 0.964 | > 10.2 µM
CPC-N (small cell lung carcinoma, suspension) | 0.92 | > 0.064 µM | 0.982 | > 0.5 µM | 0.845 | 4.22 µM | 0.947 | > 2 µM | 0.98 | > 5 µM | 0.952 | > 10.2 µM | 0.934 | > 5.12 µM | 0.572 | 400 µM | 0.922 | > 10 µM | 0.977 | > 10.2 µM
CW-2 (large intestine, adherent) | 0.988 | > 0.064 µM | 0.971 | > 0.5 µM | 0.989 | > 5.12 µM | 0.964 | > 2 µM | 0.983 | > 5 µM | 0.967 | > 10.2 µM | 0.972 | > 5.12 µM | 0.293 | 61.8 µM | 0.898 | > 10 µM | 0.986 | > 10.2 µM
D-247MG (glioma, adherent) | 0.665 | 0.0137 µM | 0.97 | > 0.5 µM | 0.978 | > 5.12 µM | 0.975 | > 2 µM | 0.935 | > 5 µM | 0.858 | > 10.2 µM | 0.435 | 0.199 µM | 0.381 | 104 µM | 0.9 | > 10 µM | 0.907 | > 10.2 µM
D-263MG (glioma, adherent) | 0.929 | > 0.064 µM | 0.972 | > 0.5 µM | 0.967 | > 5.12 µM | 0.898 | > 2 µM | 0.948 | > 5 µM | 0.982 | > 10.2 µM | 0.977 | > 5.12 µM | 0.792 | 2240 µM | 0.959 | > 10 µM | 0.983 | > 10.2 µM
